# The whole screen tested about 310,000 compounds, of which about 2,200 (0.71%) showed an effect of 50% or more. The effect is printed as a negative number. The list shows a part of the results.
# Molecular target: human ether-à-go-go-related gene (hERG) potassium channel (human, UniProt Q12809)
# Assay: primary screen, population patch clamp on CHO cells stably expressing hERG
# human ether-à-go-go-related gene (hERG) potassium channel, sequence (Q12809 whole entry, looked up): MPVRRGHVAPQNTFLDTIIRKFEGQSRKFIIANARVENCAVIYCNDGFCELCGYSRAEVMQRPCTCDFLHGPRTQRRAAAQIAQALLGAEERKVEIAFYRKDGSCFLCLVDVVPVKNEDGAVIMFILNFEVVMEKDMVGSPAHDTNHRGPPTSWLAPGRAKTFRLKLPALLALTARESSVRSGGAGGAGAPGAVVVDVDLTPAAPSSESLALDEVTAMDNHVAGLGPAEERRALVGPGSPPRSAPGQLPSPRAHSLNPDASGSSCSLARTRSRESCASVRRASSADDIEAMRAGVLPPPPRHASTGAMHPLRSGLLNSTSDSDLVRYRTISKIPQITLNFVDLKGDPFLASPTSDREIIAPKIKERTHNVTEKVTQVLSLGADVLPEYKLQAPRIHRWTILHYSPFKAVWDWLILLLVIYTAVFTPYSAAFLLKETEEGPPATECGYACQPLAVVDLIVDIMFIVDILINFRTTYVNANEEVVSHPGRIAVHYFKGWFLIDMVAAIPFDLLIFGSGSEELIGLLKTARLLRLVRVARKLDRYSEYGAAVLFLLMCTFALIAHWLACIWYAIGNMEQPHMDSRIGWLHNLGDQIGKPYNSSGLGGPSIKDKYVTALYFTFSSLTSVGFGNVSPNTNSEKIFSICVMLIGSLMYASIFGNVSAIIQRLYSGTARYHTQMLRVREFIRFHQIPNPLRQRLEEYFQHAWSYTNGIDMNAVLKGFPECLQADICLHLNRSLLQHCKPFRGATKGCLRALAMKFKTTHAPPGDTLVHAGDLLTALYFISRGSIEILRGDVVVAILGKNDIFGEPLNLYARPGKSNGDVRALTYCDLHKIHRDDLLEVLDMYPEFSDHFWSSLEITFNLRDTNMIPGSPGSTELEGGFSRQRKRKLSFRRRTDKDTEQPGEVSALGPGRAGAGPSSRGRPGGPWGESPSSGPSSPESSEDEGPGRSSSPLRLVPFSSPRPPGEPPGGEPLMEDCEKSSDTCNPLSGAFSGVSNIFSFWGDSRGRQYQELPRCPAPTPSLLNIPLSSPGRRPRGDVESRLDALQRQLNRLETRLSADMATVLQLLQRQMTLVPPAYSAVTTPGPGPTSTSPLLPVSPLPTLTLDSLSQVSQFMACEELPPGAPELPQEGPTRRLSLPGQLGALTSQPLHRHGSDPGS
row,Compound,"hERG current change (%, negative = inhibition) at 1uM [%]"
1,O=C(NCc1cccnc1)c1cccnc1Sc1ccc(Cl)cc1,6
2,COCc1ccc(C(=O)N2CCCC(C(=O)c3ccc(SC)cc3)C2)o1 (stereo not drawn),-10.7
3,CCOC(=O)c1c(NC(=O)CCl)sc(CN(C)C)c1-c1ccccc1.Cl,13.3
4,CC1CCN(C(=O)C2CCC(CNc3c(N4CCCCC4)c(=O)c3=O)CC2)CC1 (stereo not drawn),14.9
5,COc1cc(NC(=S)NCCCN2CCOCC2)c(OC)cc1NC(=O)c1ccco1,8.64
6,Cc1cc(C(=O)N/N=C/c2c(CO)cnc(C)c2O)c2ccccc2n1,15.3
7,COc1ccc(-c2cc(C(=O)N3CCCCC3)c3ccccc3n2)cc1,6.49
8,CCS(=O)(=O)c1ccc(O)c(NC(=O)COc2ccc(Cl)cc2)c1,3.4
9,Nc1nnc(SCC(=O)NC23CC4CC(CC(C4)C2)C3)s1,6.87
10,O=C(O)CSCCc1ccccn1,6.63
11,O=C(O)CCCC(=O)NCc1ccccn1,17.3
12,COc1ccc(-c2n[nH]c(C)c2-c2cnn(-c3ccccc3)c2)c(O)c1,2.51
13,O=C(Cn1nnc(-c2ccccc2NC(=O)c2ccco2)n1)NC1CCCCC1,9.18
14,CCCn1c(=O)c(C(=O)c2ccccc2)nc2ccccc21,-0.484
15,CC(=O)Nc1ccc(/C=N/Nc2nncc3ccccc23)cc1,10.2
16,Cc1cccc(/C=N/NC(=O)c2cc(C)nc3ccccc23)n1,4.79
17,O=C1OC(=O)C2C3CCC(O3)C12 (stereo not drawn),9.77
18,CN1CCN(C(=O)c2ccccc2-c2nc(-c3ccccc3)no2)CC1,-6.65
19,CCC(C)NC(=O)c1cnn2c(C)c3c(nc12)CCCC3 (stereo not drawn),-3.03
20,CCCCC1CCCC12NC(=O)NC2=O (stereo not drawn),11.4
21,CCC(=O)NC(=S)NNC(=O)c1ccc([N+](=O)[O-])cc1,8.99
22,CNC(=O)NC(=S)NC(=O)c1cccc(Cl)c1,18.7
23,CCCSCCCNC(=O)Cn1nc(CC)n2c(cc3c(OC)cccc32)c1=O,10.6

row,Compound,"hERG current change (%, negative = inhibition) at 1uM [%]"
1,FC(F)(F)c1ccccc1NC(=S)N1CCCC1,15.2
2,CCC(=O)Nc1nnc(-c2ccco2)o1,2.56
3,CN(Cc1ccccc1)C(=O)CCCn1c(=O)[nH]c2cc(Cl)ccc2c1=O,-1.14
4,Cc1c(O)ccc2c3c(c(=O)oc12)CCC(C)C3 (stereo not drawn),13.5
5,Cc1ccc(S(=O)(=O)NCCOc2nc(N(C)C)nc(N(C)C)n2)cc1,8.91
6,COC(=O)Nc1nn(-c2ccc(C)cc2)c(=O)c(C#N)c1C,4.77
7,C[C@H]1OC[C@@H](C[N+](C)(C)C)O1.[I-],19.7
8,CCc1ccc(OCC(=O)Nc2ccc(CN3CCCCC3)cc2)cc1,-0.953
9,Cc1ccc2[nH]c(=O)c(CN(Cc3ccco3)S(=O)(=O)c3c(C)ccc4nsnc34)cc2c1,15.4
10,Cc1nc2sc(C(c3ccc(F)cc3)N3CCOCC3)c(O)n2n1 (stereo not drawn),13.3
11,Cl.N=c1ccn(Cc2cccc(F)c2)cc1,16.3
12,Cc1cc(-c2ccccc2)nc2cc(C(=O)NCc3ccco3)nn12,-6.59
13,Cc1cc(NC(=O)Cn2cnc3c(nnn3-c3cccc(F)c3)c2=O)no1,8
14,Cc1ccc(Cl)cc1NC(=O)C1CCCN1S(=O)(=O)c1ccc(-c2ccc(=O)[nH]n2)s1 (stereo not drawn),-14.7
15,O=C(c1cccc(NS(=O)(=O)c2ccc(F)cc2)c1)N1CCN(c2ccccc2)CC1,12.5
16,COc1ccc(C(=O)Nc2ccc(Cl)cc2C(=O)NCCN2CCOCC2)cc1,3.99
17,O=C(CCC(=O)Nc1ccccc1Cl)NNC(=O)Nc1cccc([N+](=O)[O-])c1,-1.45
18,C=CCNC(=S)/C(=C(/[O-])c1ccccc1Br)[n+]1ccccc1,21.4
19,Cc1[nH]n(-c2ccccc2)c(=O)c1N=Nc1ccc(C(=O)O)cc1,7.11
20,CN(c1ccccc1)S(=O)(=O)c1cccc(C(=O)Nc2nccs2)c1,-2.66
21,CC1CCc2onc(C(=O)NCc3ccco3)c2C1 (stereo not drawn),7.7
22,Cc1noc(C)c1COc1cccc(C(=O)Nc2cccnc2)c1,-0.547
23,O=C(COC(=O)Cc1ccccc1)Nc1cc(S(=O)(=O)N2CCOCC2)ccc1N1CCCC1,2.17

row,Compound,"hERG current change (%, negative = inhibition) at 1uM [%]"
1,CC(=O)Nc1ccc(NC(=O)CN(C)CCC#N)cc1,11.3
2,COc1ccc(N=C2SCC(=O)N2CCc2ccc(OC)c(OC)c2)cc1,11.7
3,O=c1oc2cc(O)c(Cl)cc2c2ccccc12,14.2
4,CCN(CC)C(=O)Cn1cc(S(=O)(=O)CC(=O)NCCc2ccccc2)c2ccccc21,9.31
5,Cc1nn(C)cc1S(=O)(=O)Nc1ccc(F)c(F)c1,-1.03
6,Cc1ccc(S(=O)(=O)N/N=C/c2c(F)cccc2Cl)cc1,5.82
7,COc1ccccc1-n1cc(CN2CCN(CC(C)C)C(CCO)C2)cn1 (stereo not drawn),5.53
8,CC(C)(C)OC(=O)NCCc1nnc(SCc2ccc(Cl)cc2Cl)o1,1.7
9,COc1ccc(C2(C(=O)Nc3ccc(S(N)(=O)=O)cc3)CCCC2)cc1,6.12
10,CCCCNC(=O)c1c(CSc2ccc(Cl)cc2)noc1C(=O)NCCC,2.12
11,Cc1cc(C)nc(SCc2cc(=O)c(OC(=O)c3ccc(S(=O)(=O)N(C)C)cc3)co2)n1,6.61
12,O=C(O)CCCN1C(=O)c2ccccc2Sc2ncccc21,7.54
13,Cc1ccc(N=Cc2c(O)n(-c3nccs3)c(=O)c3ccccc23)cc1,13.8
14,O=C(CNC(=O)/C=C/c1ccco1)N=Nc1c(O)[nH]c2ccccc12,13.4
15,CC(C(=O)NCc1cccs1)n1cccc1 (stereo not drawn),7.71
16,CCNC(=O)CSc1nc2ccccc2c(=O)n1CCCOC(C)C,1.52
17,CC1CCN(S(=O)(=O)c2ccc(NC(=O)CN3CCCCCC3)cc2)CC1,9.31
18,COCCNC(=O)CCCC(=O)NCCOC,17.4
19,Cc1cc(C)cc(N(C(=O)CCC(=O)Nc2cc(C)on2)C(C(=O)NC2CCCC2)c2ccco2)c1 (stereo not drawn),9.51
20,CC1(CCBr)C(=O)N(c2ccccc2)c2ccccc21 (stereo not drawn),12.6
21,Cc1nnc(N2CCCC(C(=O)Nc3cc(F)ccc3F)C2)c2nn(-c3ccccc3)c(C)c12 (stereo not drawn),28.3
22,CCCCn1c(N)c(N(CC)C(=O)C(c2ccccc2)c2ccccc2)c(=O)[nH]c1=O,7.33
23,CC(C)c1ccc(C2=C(O)c3ccccc3C(=O)C2=O)cc1,-2.48

row,Compound,"hERG current change (%, negative = inhibition) at 1uM [%]"
1,CCOC(=O)C1=C(C)N=C2SCCC(=O)N2C1c1cc(Br)ccc1OC (stereo not drawn),4.22
2,Cc1ccc(C(C(=O)NC2CCCC2)N(C(=O)CCC(=O)Nc2cc(C)on2)c2ccccc2)cc1 (stereo not drawn),-1.94
3,COc1ccc(CNS(=O)(=O)c2cc(CN3C(=O)c4cccnc4C3=O)ccc2OC)cc1,14.8
4,CCN(CC)C(=O)COC(=O)C1CCN(S(=O)(=O)c2ccc3c(c2)OCCO3)CC1,0.008
5,CC(=O)NS(=O)(=O)c1ccc2c(c1)C(=O)c1cc(S(=O)(=O)NC(C)=O)ccc1-2,14.7
6,Cc1nc(C(F)(F)F)ccc1C(=O)Nc1ccc2ccccc2n1,8.39
7,CCOC(=O)C1CCN(Cc2coc3ccc(Cl)cc3c2=O)CC1,-7.34
8,Cc1ccc2[nH]c3c(c2c1)CCCC3NCCO.Cl (stereo not drawn),8.36
9,Cc1cccc(CNc2ncnc3ccc(-c4ccc5c(c4)OCCO5)cc23)c1,14.2
10,Oc1ccccc1/C=N/Nc1ccnc(SCc2ccccc2)n1,13.3
11,Cc1ccc(S(=O)(=O)N2CCOC23CCN(S(=O)(=O)c2cccs2)CC3)cc1,-1.58
12,COc1ccc(S(=O)(=O)N2CCC(C(=O)NCCOc3ccccc3F)CC2)cc1OC,10.8
13,COc1ccc(Cl)cc1NC(=S)NNC(=O)c1cccnc1,22.1
14,CCc1cc(C(=O)Cc2cnn(-c3ccccc3)c2)c(O)cc1O,-1.87
15,N#Cc1c(Nc2ccc(F)cc2)sc(C(=O)c2ccccc2)c1N,-0.643
16,CCOC(=O)c1c(C)n(C)c2ccc(OCC(O)CNCCc3ccccc3)cc12 (stereo not drawn),7.51
17,O=S(=O)(c1ccccc1)N(CC(O)CN1CCOCC1)c1ccccc1 (stereo not drawn),9.04
18,Cc1ccsc1CN1CCN(c2ccccn2)CC1,0.592
19,Cc1ccc(S(=O)(=O)N2CCC(C(=O)N[C@H](C(=O)NCC3CCCO3)C(C)C)CC2)cc1 (stereo partly drawn),4.46
20,COC(=O)c1scc(C)c1NC(=O)/C=C/C(=O)O,14
21,CC(NC(=O)c1ccccc1NC(=O)CN1CCN(c2ccccc2O)CC1)c1ccccc1 (stereo not drawn),11.5
